pIC50: −log10 of the molar value. By IC50 is meant the dose at which the fit gives 50% viability; where the fit passes the top or lowest dose, that dose stands as a limit. AUC sums up the same curve from the lowest dose to the 256-fold higher top dose; the more sensitive the line, the further below 1. For some of these results: The top dose, if marked as inferred, is not printed in the source and was worked back from the curve model.
Tests used:
Assay in all cases: Viability of human cancer cell lines after 72 h of drug (GDSC screen)
[1] = compound: CNC(=O)c1ccccc1Sc1ccc2c(/C=C/c3ccccn3)n[nH]c2c1 [Axitinib]; settings: top dose 2 µM
Experimental: (§1)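 Human cancer cell lines in 384-well plates, medium with 10% serum, drug for 72 h over a 256-fold dose range (nine 2-fold or five 4-fold steps up to the top dose). Adherent lines were fixed and stained with the nucleic acid dye Syto60, suspension lines read with resazurin; signal relative to control wells, capped at 0 and 100%. One two-parameter sigmoid per drug and line, fitted in a mixed model over all curves with the slope shared within a line.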

[2] = compound: O=C(CCCCCCC(=O)Nc1ccccc1)NO [Vorinostat]; settings: top dose 10 µM
Experimental: as §1

[3] = compound: CC(C)(C)c1nc(-c2cccc(NS(=O)(=O)c3c(F)cccc3F)c2F)c(-c2ccnc(N)n2)s1 [Dabrafenib]; settings: top dose 10 µM
Experimental: as §1

[4] = compound: CCc1c2c(nc3ccc(O)cc13)-c1cc3c(c(=O)n1C2)COC(=O)[C@]3(O)CC [SN-38]; settings: top dose 0.05 µM; top dose inferred
Experimental: as §1

[5] = compound: CN(Cc1cnc2nc(N)nc(N)c2n1)c1ccc(C(=O)N[C@@H](CCC(=O)O)C(=O)O)cc1 [Methotrexate]; settings: top dose 0.2 µM
Experimental: as §1

With CW-2 (large intestine, adherent) the AUC [1] was 0.988, the pIC50 [1] was under 5.70 and the AUC [2] was 0.796. The pIC50 [2] was 5.29, the AUC [3] was 0.988 and the pIC50 [3] was under 5.00. It also gave an AUC [4] of 0.842, a pIC50 [4] of 7.41 and an AUC [5] of 0.989. It also gave a pIC50 [5] of under 6.70.

“JURL-MK1 (chronic myeloid leukaemia, suspension)” gave an AUC [1] of 0.457, a pIC50 [1] of 7.02 and an AUC [2] of 0.598. It also gave a pIC50 [2] of 5.94, an AUC [3] of 0.801 and a pIC50 [3] of 5.32. The AUC [4] was 0.646, the pIC50 [4] was 8.10 and the AUC [5] was 0.757. For the same cell line, the pIC50 [5] was 7.16.

NCI-H727 (lung carcinoid, adherent) was tested, and the AUC [1] was 0.975, the pIC50 [1] was under 5.70 and the AUC [2] was 0.903. The pIC50 [2] was under 5.00, the AUC [3] was 0.882 and the pIC50 [3] was under 5.00. For the same cell line, the AUC [4] was 0.899, the pIC50 [4] was under 7.30 and the AUC [5] was 0.923. For the same cell line, the pIC50 [5] was under 6.70.

HA7-RCC (kidney, adherent) gave an AUC [1] of 0.953, a pIC50 [1] of under 5.70 and an AUC [2] of 0.859. The pIC50 [2] was 5.01, the AUC [3] was 0.784 and the pIC50 [3] was 5.33. For the same cell line, the AUC [4] was 0.435, the pIC50 [4] was 8.69 and the AUC [5] was 0.977. For the same cell line, the pIC50 [5] was under 6.70.

Cell Line “NCI-H2009 (lung adenocarcinoma, adherent)” has an AUC [1] of 0.929, a pIC50 [1] of under 5.70 and an AUC [2] of 0.566. It also gave a pIC50 [2] of 6.02, an AUC [3] of 0.973 and a pIC50 [3] of under 5.00. For the same cell line, the AUC [4] was 0.574, the pIC50 [4] was 8.30 and the AUC [5] was 0.985. The pIC50 [5] was under 6.70.

Work on “NCI-H520 (lung squamous cell carcinoma, adherent)” yielded an AUC [1] of 0.96, a pIC50 [1] of under 5.70 and an AUC [2] of 0.902. For the same cell line, the pIC50 [2] was under 5.00, the AUC [3] was 0.986 and the pIC50 [3] was under 5.00. For the same cell line, the AUC [4] was 0.896, the pIC50 [4] was under 7.30 and the AUC [5] was 0.94. The pIC50 [5] was under 6.70.

For SNU-182 (liver, adherent), the AUC [1] was 0.793, the pIC50 [1] was 6.02 and the AUC [2] was 0.702. The pIC50 [2] was 5.62, the AUC [3] was 0.91 and the pIC50 [3] was under 5.00. The AUC [4] was 0.852, the pIC50 [4] was 7.38 and the AUC [5] was 0.984. The pIC50 [5] was under 6.70.

For NB13 (neuroblastoma, adherent), the AUC [1] was 0.955, the pIC50 [1] was under 5.70 and the AUC [2] was 0.704. It also gave a pIC50 [2] of 5.67, an AUC [3] of 0.97 and a pIC50 [3] of under 5.00. It also gave an AUC [4] of 0.465, a pIC50 [4] of 8.60 and an AUC [5] of 0.976. It also gave a pIC50 [5] of under 6.70.

“RERF-LC-Sq1 (lung squamous cell carcinoma, adherent)” was tested, and the AUC [1] was 0.967, the pIC50 [1] was under 5.70 and the AUC [2] was 0.726. For the same cell line, the pIC50 [2] was 5.42, the AUC [3] was 0.97 and the pIC50 [3] was under 5.00. It also gave an AUC [4] of 0.949, a pIC50 [4] of under 7.30 and an AUC [5] of 0.939. It also gave a pIC50 [5] of under 6.70.

“LU-139 (small cell lung carcinoma, suspension)” was tested, and the AUC [1] was 0.966, the pIC50 [1] was under 5.70 and the AUC [2] was 0.546. It also gave a pIC50 [2] of 6.06, an AUC [3] of 0.977 and a pIC50 [3] of under 5.00. For the same cell line, the AUC [4] was 0.877, the pIC50 [4] was under 7.30 and the AUC [5] was 0.859. The pIC50 [5] was under 6.70.

In the case of MZ1-PC (pancreas, adherent), the AUC [1] was 0.972, the pIC50 [1] was under 5.70 and the AUC [2] was 0.892. For the same cell line, the pIC50 [2] was under 5.00, the AUC [3] was 0.612 and the pIC50 [3] was 5.86. It also gave an AUC [4] of 0.569, a pIC50 [4] of 8.30 and an AUC [5] of 0.979. It also gave a pIC50 [5] of under 6.70.

In the case of KYSE-150 (oesophagus, adherent), the AUC [1] was 0.988, the pIC50 [1] was under 5.70 and the AUC [2] was 0.911. It also gave a pIC50 [2] of under 5.00, an AUC [3] of 0.988 and a pIC50 [3] of under 5.00. It also gave an AUC [4] of 0.923, a pIC50 [4] of under 7.30 and an AUC [5] of 0.807. The pIC50 [5] was 7.01.

“NCI-H2342 (lung adenocarcinoma, adherent)” showed an AUC [1] of 0.981, a pIC50 [1] of under 5.70 and an AUC [2] of 0.949. The pIC50 [2] was under 5.00, the AUC [3] was 0.984 and the pIC50 [3] was under 5.00. The AUC [4] was 0.869, the pIC50 [4] was under 7.30 and the AUC [5] was 0.986. It also gave a pIC50 [5] of under 6.70.
